Experimental data from the supplement of paper PMC10126150.
Values marked as one replicate rest on one cluster of the flow cell; about a third of the high ones do not repeat.

Each sequence was assayed on ATP (assay: switch fluorescence ratio, 500 uM ATP over buffer (Cy3 cluster intensity, sum of 5 cycles each) (fold (ratio)); higher = stronger signal-on switching upon ATP binding; sequences stand for … in TCGTCGGCAGCGTCAGATGTGTATAAGAGACAGTTTTTTTTTTTTTTTTTTTTTTTTT…TC). Conditions: aptamer strand: ATP DNA aptamer (quencher-CACCTGGGGGAGTATTGCGGAGGAAGG + anchor), 100 nM annealed; ATP concentration: 500 uM; one replicate.
Method in brief: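 Per cluster, summed Cy3 intensity from the target cycles was divided by that from the buffer cycles to give the fluorescence ratio, then averaged per switch-domain sequence. Clusters outside 100-1000 RFU were excluded. The Cy3-labelled switching-strand clusters, on a modified Illumina MiSeq flow-cell, were annealed to 100 nM quencher-labelled ATP aptamer and imaged in selection buffer, then after 15 min with 500 uM ATP at 22 °C, for five cycles with NaOH stripping and re-annealing between them.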
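Also: ATP exposure 15 min at 22 °C before imaging.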

Sequence | switch fluorescence ratio
TATGCTCC | 1.08
TATGCTCCGC | 1.42
TATGCTTTTC | 0.985
TATGGACGGG | 1.01
TATGGATTTC | 1.01
TATGGCATG | 0.992
TATGGCCAGA | 0.965
TATGGGAAT | 0.974
TATGGGAGTC | 0.974
TATGGGCAA | 1.06
TATGGGCTGT | 1.01
TATGGTAAAA | 1.01
TATGGTGATG | 0.986
TATGTAGTCC | 1.01
TATGTCTGTT | 1.01
TATGTGCATT | 0.953
TATGTGCCGC | 1.07
TATGTGGGTT | 0.95
TATGTTATCT | 1
TATGTTATGC | 1.08
TATGTTCGGG | 0.939
TATGTTGCGG | 1.01
TATTAAAGCT | 1.15
TATTAATGTA | 1.01
TATTACCATC | 1.04
TATTACGGCC | 1.04

Sequence | switch fluorescence ratio
TATTACGTCT | 1.01
TATTACTAA | 1
TATTAGAAT | 1.01
TATTAGCGG | 0.983
TATTAGTGAC | 0.996
TATTATCCCT | 0.99
TATTCAAGCC | 1.04
TATTCCGATG | 1.34
TATTCCGGTT | 0.96
TATTCGATGC | 1.14
TATTCTGGTG | 0.978
TATTGAAGCT | 0.999
TATTGCCGGA | 1.19
TATTGCGACT | 0.987
TATTGGAGGA | 0.975
TATTGGGATG | 1.17
TATTGGGTTA | 0.998
TATTGGTCAG | 1.01
TATTGT | 1.03
TATTGTACGG | 1.05
TATTGTAGGT | 1.42
TATTGTCGGT | 0.968
TATTGTGTTG | 0.993
TATTTAAGCG | 0.985
TATTTACATA | 1.05
TATTTACTG | 1.06

Sequence | switch fluorescence ratio
TATTTATGC | 1.05
TATTTCACGA | 1.3
TATTTCAGCA | 0.989
TATTTCCG | 0.987
TATTTGCCTT | 0.975
TATTTGCGC | 1.04
TATTTGGCAA | 2.36
TATTTGTA | 1.03
TATTTGTCTA | 1
TATTTTAACT | 0.962
TATTTTCCTA | 0.971
TATTTTTTG | 0.95
TCAAAAGTGA | 0.966
TCAAAATTGA | 0.998
TCAAACTAGC | 0.985
TCAAACTAGT | 1.04
TCAAAGCTCT | 1.09
TCAAAGTCCG | 0.998
TCAAATACT | 1.05
TCAAATGAAG | 1.03
TCAAATGTGT | 1.04
TCAAATTTGT | 1.01
TCAACAGGAT | 0.988
TCAACATGTC | 1.03
TCAACGCGTC | 1.14
TCAACGTTTG | 1.05

Sequence | switch fluorescence ratio
TCAACTCAAA | 0.972
TCAAGAAATA | 1.02
TCAAGACAGC | 0.975
TCAAGCACT | 1.28
TCAAGCATGG | 0.996
TCAAGCCAT | 1.01
TCAAGCTGGA | 0.923
TCAAGGATAT | 1.05
TCAAGGGGGG | 1.01
TCAAGGTCT | 1.04
TCAAGTGAGT | 1
TCAAGTGCGC | 0.934
TCAATCCGTG | 0.977
TCAATGAGGC | 1.08
TCAATGGGCG | 0.951
TCAATTAGAG | 0.985
TCAATTCACG | 0.987
TCAATTTCAG | 1.02
TCAATTTTAT | 1.03
TCACAATCGT | 1.35
TCACACCCCG | 1.11
TCACAGCGCG | 1.01
TCACAGGCGA | 1.03
TCACATACCT | 1.64
TCACATCCTT | 1.04
TCACATGACA | 1.1

Sequence | switch fluorescence ratio
TCACATGCCG | 0.993
TCACATGCTA | 1.02
TCACCCCTTT | 1.21
TCACCGACCT | 1.36
TCACCGGTA | 1.02
TCACCTATTG | 1.01
TCACCTGTAC | 1.36
TCACCTTGTC | 1.1
TCACGAAGTT | 0.959
TCACGAGGGT | 1.02
TCACGCCTAT | 1.03
TCACGGGGCC | 1.06
TCACGGTCTA | 1.07
TCACGTATTT | 1.24
TCACGTTATT | 1.17
TCACTATATC | 1.09
TCACTATCGA | 1.02
TCACTATTCA | 1.07
TCACTCGGAG | 1.02
TCACTGAGGC | 1
TCACTTTCCG | 1.06
TCACTTTCTA | 1.04
TCAGAAGAGT | 1.02
TCAGAAGTCA | 1.03
TCAGACTATC | 0.978
TCAGACTGCT | 1.03

Sequence | switch fluorescence ratio
TCAGAGGGGA | 1.08
TCAGAGTTT | 0.979
TCAGATATTT | 0.912
TCAGATGGGT | 0.969
TCAGATGTTC | 1.02
TCAGATTCAG | 1.03
TCAGCACAG | 1.01
TCAGCACAGG | 1.43
TCAGCACGCG | 1.05
TCAGCATCC | 1.97
TCAGCCTGGT | 0.989
TCAGGAACGA | 0.954
TCAGGATGAC | 1.04
TCAGGCACT | 1.02
TCAGGGCTAC | 0.985
TCAGGGGGTA | 1.14
TCAGGTAACG | 1.06
TCAGGTCTTA | 1.05
TCAGGTTGCA | 1.03
TCAGTATATA | 0.969
TCAGTCCAGA | 1.02
TCAGTCTTAG | 1.04
TCAGTCTTCC | 1.53
TCAGTGCGGC | 0.972
TCAGTGTTGG | 0.979
TCAGTTCCGT | 1.03

Sequence | switch fluorescence ratio
TCAGTTCGTC | 0.946
TCATAAATAG | 1
TCATAATGGG | 1.01
TCATACTGAT | 1.01
TCATAGCTTT | 1.02
TCATCCGTGG | 1.69
TCATCCTAAA | 1.18
TCATCGGTGG | 1.03
TCATGAGTTA | 1
TCATGCTGGA | 0.985
TCATGGTACA | 1.07
TCATGGTAGT | 1
TCATGTACCT | 1.29
TCATGTTAAT | 1.04
TCATTATCGT | 0.989
TCATTCTTCG | 1.01
TCATTGACGG | 1.06
TCATTGGCCT | 1.03
TCATTGGTTC | 0.977
TCATTGTTGA | 0.994
TCATTTAAGT | 1
TCATTTGTT | 0.992
TCATTTTAGC | 1.01
TCCAAAATGC | 1.76
TCCAAATGAG | 1.01
TCCAACACGG | 1.01

Sequence | switch fluorescence ratio
TCCAAGAGAA | 1.03
TCCAATCCGA | 1.01
TCCACGGAAC | 1.17
TCCACGTTG | 0.99
TCCAGATACC | 1
TCCAGATGC | 1.28
TCCAGGTGAA | 5.03
TCCATAGAAT | 1
TCCATCCTGG | 1.04
TCCATGATT | 1.02
TCCATGCGCC | 1.31
TCCATGTCTT | 0.962
TCCATTACAC | 1.03
TCCATTTGGG | 0.977
TCCATTTTTG | 0.944
TCCCAAACGT | 1.04
TCCCACTCCA | 1.1
TCCCAGGAT | 1.05
TCCCAGGTAG | 2.75
